# Laboratory results published in PubChem BioAssay AID686979 (National Center for Advancing Translational Sciences (NCATS), 2013).
# Out of some 420,000 compounds screened, about 50,000 (12%) were called active. This list was built around the results that the source calls inconclusive (neither active nor inactive); the mix of calls is not that of the screen. Calls come from the whole dose curve; as a rule, active = well fitted inhibition curve with a large enough effect; inconclusive = small, poorly fitted or top-dose-only effect; inactive = flat fitted curve, though single readings scatter. Potencies of inconclusive entries are left out as doubtful fits.
# Assay: qHTS for Inhibitors of human tyrosyl-DNA phosphodiesterase 1 (TDP1): qHTS in cells in presence of CPT; note: nearly all actives have a fitted effect of over 55% in size
# Settings: chicken DT40 Tdp1-/-;hTDP1 cells + 20 nM CPT, ATP luminescence, 48 h; series mostly up to 46.2 µM
# Method in brief: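 Chicken DT40 Tdp1-/- cells complemented with human TDP1, 400 cells/well, exposed to compounds plus 20 nM camptothecin for at least 48 h at 37 C; viability read as ATP content by CellTiter-Glo luminescence.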
# Potency is the fitted concentration of half-maximal effect; tags give direction and shape of the fitted curve.
row,SMILES,Potency
1,N#C/C(=C\c1ccccn1)c1ccccn1,active: 23.1 µM
2,CCOC(=O)c1[nH]c2ccc(OC)cc2c1NC(=S)N1CCN(c2cccc(C)c2C)CC1,"inconclusive [inhibitor, single point]"
3,Cc1nc2c(C(=O)NCc3ccccc3Cl)c[nH]n2c(=O)c1Cc1cccc(Cl)c1,"inconclusive [inhibitor, partial curve, poor fit]"
4,O=C(NC(=O)c1ccccc1O)c1ccc2c(c1)CCO2,inactive
5,COc1c(C)cc(S(=O)(=O)Nc2cccc(-c3ccc(N4CCOCC4)nn3)c2)c(C)c1C,active: 23.1 µM
6,CCOC(=O)N1CCN(C(=O)CSc2nnc(-c3cccc(OC)c3)o2)CC1,active: 16.4 µM
7,O=C(Nc1nnc(C2=COCCO2)o1)c1cccc(C(F)(F)F)c1,active: 25.9 µM
8,C=C1CC[C@@H]2[C@](C)(CO)[C@H](O)CC[C@@]2(C)[C@@H]1C/C=C1/C(=O)OC[C@H]1O,active: 2.99 µM
9,Cn1c(=O)c2cc(NC(=O)NCCc3ccccc3)ccc2n1Cc1cccc(C(F)(F)F)c1,"inconclusive [inhibitor, single point]"
10,O=C(CN1CCN(Cc2ccccc2Cl)CC1)N/N=C/c1ccco1,inactive
11,COc1ccc(-c2nc(CSCC(=O)NCCCN3CCCC3=O)c(C)o2)cc1OC,inactive
12,CCOC(=O)c1cc(-c2ccccc2C)n(CC2CC(c3ccc(OC)cc3)=NO2)n1 (stereo not drawn),"inconclusive [inhibitor, single point]"
13,COc1ccc(-c2c(C)nn3c(-c4ccccc4)cc(C)nc23)cc1,"inconclusive [inhibitor, single point]"
14,COc1ccc(CCNC(=O)CCC(=O)NC2CCCCC2)cc1OC,inactive
15,CCOc1ccc(NC(=O)CN2CCN(Cc3ccccc3)S2(=O)=O)cc1,"inconclusive [inhibitor, single point]"
16,CCCNC(=O)c1cc(C2CCCCN2C(=O)c2cc(OC)c(C)c(OC)c2)on1 (stereo not drawn),active: 20.6 µM
17,CCCN(CCC)CCCNC(=S)Nc1ccc2nc(N3CCN(CC)CC3)cc(C)c2c1,"inconclusive [inhibitor, single point]"
18,CCOC(=O)N1CCc2c(sc(NCc3sccc3C)c2C(=O)Nc2cc(OC)ccc2OC)C1,inactive
19,CCCCN(C=O)c1c(CC)nc2ccc(C(=O)NCCCN3CCCC3=O)cn12,inactive
20,O=C(COC(=O)/C=C/c1ccccc1[N+](=O)[O-])Nc1ccc(S(=O)(=O)N2CCOCC2)cc1,inactive
21,O=C(/C=C/c1cccs1)NC(=S)Nc1ccc(C(=O)O)cc1,"inconclusive [inhibitor, single point]"
22,Cc1ccc(OCC(=O)Nc2ccc(C)c(S(=O)(=O)N3CCCCCC3)c2)c([N+](=O)[O-])n1,"inconclusive [inhibitor, single point]"
23,O=C1CC(c2ccc(S(=O)(=O)NCc3ccccc3)cc2)CN1 (stereo not drawn),inactive
24,Cc1ccc(CN2C(=O)C(Cc3ccccc3)Nc3ncnc(N4CCN(c5ccccc5)CC4)c32)cc1 (stereo not drawn),"inconclusive [inhibitor, single point]"
25,Cc1nc(NCc2ccccc2)[nH]c(=O)c1CCC(C)C,"inconclusive [inhibitor, partial curve, poor fit]"

row,SMILES,Potency
1,CCOc1ccc(CNC(=O)C2CCCN(S(=O)(=O)N3CC(C)CC(C)C3)C2)cc1OC (stereo not drawn),inactive
2,C=CCNC(=O)c1oc2ccc(S(=O)(=O)N3CCCCC3)cc2c1C,inactive
3,Brc1ccc2c(c1)CNc1c(ncnc1N1CCOCC1)O2,active: 15.8 µM
4,Cc1cccc(OC(C)C(=O)Nc2cc(Cl)ccc2-n2cncn2)c1 (stereo not drawn),"inconclusive [inhibitor, single point]"
5,CCC(=O)Nc1cccc(C(=O)/C=C/c2ccc(F)cc2)c1,active: 4.61 µM
6,COc1ccc(S(=O)(=O)c2c(O)cc(C)c(NS(=O)(=O)c3ccccc3)c2C)cc1,"inconclusive [inhibitor, full curve, poor fit]"
7,CC12CN(S(=O)(=O)c3ccccc3)CC(C)(CN(S(=O)(=O)c3ccccc3)C1)C2,active: 2.31 µM
8,COc1ccc2nc(Cl)c(C=O)c(N3CCOCC3)c2c1,"inconclusive [inhibitor, single point]"
9,COc1ccc(OC)c(/C=C/C(=O)c2ccc(Cl)cc2)c1,active: 18.4 µM
10,CC(=O)c1sc2nc(-c3ccco3)ccc2c1N,"inconclusive [inhibitor, single point]"
11,CCCCNC(=O)C1CCN(C(=O)N2CC(C)Oc3ccc(Cl)cc32)CC1 (stereo not drawn),"inconclusive [inhibitor, single point]"
12,Clc1ccc(-c2ccc(CNCc3ccccn3)o2)cc1,"inconclusive [inhibitor, single point]"
13,CCOc1ccccc1NC(=O)CN1C(=O)COc2ccc(S(=O)(=O)N3CCCCCC3)cc21,"inconclusive [inhibitor, single point]"
14,CCOc1ccccc1NC(=O)Cc1coc2c(C)c(C)ccc12,"inconclusive [inhibitor, single point]"
15,Cc1c(NS(=O)(=O)c2ccc3c(c2)c(=O)n(C)c(=O)n3C)c(=O)n(-c2ccccc2)n1C,"inconclusive [inhibitor, single point]"
16,Cc1ccc(S(=O)(=O)N2CCN(CC(=O)N/N=C/C=C/c3ccccc3)CC2)cc1,inactive
17,COc1cc(C(C)=O)ccc1OCC(=O)N1CCC(Cc2ccccc2)CC1,"inconclusive [inhibitor, single point]"
18,Cc1noc(C)c1CSc1nc2sc(C)c(C)c2c(=O)n1C1CCCC1,"inconclusive [inhibitor, single point]"
19,CN(Cc1ccccc1)C(=O)c1ccc2c(c1)NC(=O)C(N1CCOCC1)S2 (stereo not drawn),"inconclusive [inhibitor, partial curve]"
20,O=c1c(Cc2ccc(Cl)cc2)c(O)ccn1Cc1cccs1,inactive
21,O=C(Oc1ccccc1C(=O)Nc1ccccc1)c1ccccc1Br,active: 18.4 µM
22,COc1ccccc1-c1nnc2sc(-c3cnccn3)nn12,inactive
23,CC1(C)Cc2c(C#N)c(NCCc3ccccc3)nc(-c3ccco3)c2CO1,"inconclusive [inhibitor, single point]"
24,COC(=O)c1cc(C(=O)OCC(=O)c2ccc3c(c2)NC(=O)CO3)cc([N+](=O)[O-])c1,inactive
25,Cc1sc(NC(=O)CN2CCCC2)nc1-c1ccc2c(c1)CCN2C(=O)c1cccc(F)c1,"inconclusive [inhibitor, single point]"

row,SMILES,Potency
1,COc1ccc(-c2cc(C(=O)N3CCN(c4ccccc4)CC3)no2)cc1OC,inactive
2,Cc1cccc(N2CCN(C(=O)c3cc4c(=O)n(C)c5ccccc5c4n3C)CC2C)c1 (stereo not drawn),active: 18.4 µM
3,O=C(O)CC(Cc1ccccc1)(C(=O)O)c1ccccc1 (stereo not drawn),inactive
4,O=C(NCC(c1ccco1)N1CCCCC1)c1cccc(NS(=O)(=O)c2ccc(Br)cc2)c1 (stereo not drawn),inactive
5,CN1CCN(C(=O)CCc2nc(-c3ccc(Cl)cc3)no2)CC1,"inconclusive [inhibitor, single point]"
6,COc1ccc(S(=O)(=O)N2CCN(C(=O)c3c(C)nn(-c4ccccc4)c3C)CC2)cc1,"inconclusive [inhibitor, single point]"
7,CCc1nn(CC(=O)NCCCOC)c(=O)c2cc3occc3n12,inactive
8,COc1cccc(NC(=O)CSc2nc3ccc(NC(=O)c4ccco4)cc3s2)c1,active: 13 µM
9,Cc1nc(-c2ccc(NC(=O)C3CC3)cc2)cs1,active: 23.1 µM
10,CCN1CC(CN(C)Cc2nc(-c3ccc(C(F)(F)F)cc3)no2)CC1=O (stereo not drawn),"inconclusive [inhibitor, single point]"
11,CC(C)=CCC/C(C)=C/CNC(=O)C[C@H]1C[C@H](C(=O)N2CCCCC2)[C@@]2(C)c3[nH]c4cc(CCC(=O)N(C)C)ccc4c3CCN2C1=O,active: 7.31 µM
12,Cc1ccc(SC(C)C(=O)Nc2cccc(N(C)S(C)(=O)=O)c2)cc1 (stereo not drawn),"inconclusive [inhibitor, partial curve, poor fit]"
13,O=C(Nc1nnc([C@@H]2C[C@H](O)[C@@H](CO)O2)s1)c1cccc(OC(F)(F)F)c1,inactive
14,CN1C(=O)c2cccc(N(C)C)c2C1=O,inactive
15,O=C(c1ccc([N+](=O)[O-])cc1[N+](=O)[O-])n1cnc2ccccc21,"inconclusive [inhibitor, single point]"
16,CC(=O)Nc1ccc(OCC(O)Cn2c3ccccc3c3ccccc32)cc1 (stereo not drawn),"inconclusive [inhibitor, partial curve]"
17,CCCC(=O)Nc1nnc(S(=O)(=O)N2CCCC2)s1,inactive
18,COn1c(SCc2ccc(C)cc2C)nc2ccccc2c1=O,active: 20.6 µM
19,CCCN(CCC)CCCNC(=O)Cn1cnc2onc(-c3ccc(F)cc3)c2c1=O,inactive
20,O=C(Cn1cnc2c(nc3n2CCCCC3)c1=O)Nc1ccc(F)cc1,inactive
21,Cc1sc(NC(=S)NC(=O)c2ccc(C(C)(C)C)cc2)c(C#N)c1C,"inconclusive [inhibitor, single point]"
22,O=C(NCc1ccc(F)cc1)c1cc(C2CCCCN2S(=O)(=O)c2ccc(F)cc2F)on1 (stereo not drawn),active: 23.1 µM
23,COc1ccc(OC)c(NC(=O)Cn2cc(C(=O)c3ccco3)c3ccccc32)c1,"inconclusive [inhibitor, single point]"
